Source: the supplement of paper PMC10126150
Sequences with one replicate were seen in a single cluster, so their values are uncertain.

Test system: ATP
Assay: switch fluorescence ratio, 500 uM ATP over buffer (Cy3 cluster intensity, sum of 5 cycles each) (fold (ratio)); higher = stronger signal-on switching upon ATP binding; sequences stand for … in TCGTCGGCAGCGTCAGATGTGTATAAGAGACAGTTTTTTTTTTTTTTTTTTTTTTTTT…TC
Conditions: aptamer strand: ATP DNA aptamer (quencher-CACCTGGGGGAGTATTGCGGAGGAAGG + anchor), 100 nM annealed; ATP concentration: 500 uM; one replicate
Method in brief: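 The quencher-labelled ATP aptamer, at 100 nM, was annealed to Cy3-labelled switching-strand clusters on a modified Illumina MiSeq flow-cell. The clusters were imaged in selection buffer, then after 15 min with 500 uM ATP at 22 °C, and this buffer/ATP cycle ran five times with NaOH stripping and re-annealing between runs. Per-cluster fluorescence ratios, summed target-cycle over summed buffer-cycle Cy3 intensity, were averaged per switch-domain sequence. Clusters outside 100-1000 RFU were excluded.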
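Also: ATP exposure 15 min at 22 °C before imaging.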

GATTAATCGC was tested, and the switch fluorescence ratio was 1.01.
In the case of CTAGGGACGG, the switch fluorescence ratio is reported as 1.01.
Sequence GATTCAGAAC has a switch fluorescence ratio of 0.959.
Work on TCGTCGTTCT yielded a switch fluorescence ratio of 0.997.
With GTATCGTTTT the switch fluorescence ratio was 1.03.
Sequence TACGGATTAA has a switch fluorescence ratio of 1.01.
TTATGAAAAA showed a switch fluorescence ratio of 0.986.
With TCGTAGGCCG the switch fluorescence ratio was 0.956.
CAAAGGACCC showed a switch fluorescence ratio of 1.04.
Work on AGGGCAGG yielded a switch fluorescence ratio of 1.08.
With GCTTGGAGCT the switch fluorescence ratio was 0.997.
Sequence CTGCAAGGAA has a switch fluorescence ratio of 1.
CCTTTCAGGG was tested, and the switch fluorescence ratio was 1.
Work on CGACGTAGCG yielded a switch fluorescence ratio of 1.
Work on CACCGGTACG yielded a switch fluorescence ratio of 1.
CATAGCGTAC showed a switch fluorescence ratio of 4.64.
Work on AATAATGCCC yielded a switch fluorescence ratio of 1.02.
Sequence GGAATACATC has a switch fluorescence ratio of 1.08.
GGAGTAGCCC showed a switch fluorescence ratio of 0.997.
With CACAGGGGCA the switch fluorescence ratio was 1.45.
Sequence CAATCGTCGG has a switch fluorescence ratio of 0.959.
Work on GTGAAATTCA yielded a switch fluorescence ratio of 1.01.
With GAAGAGGATA the switch fluorescence ratio was 0.965.
CTCAGTGATT was tested, and the switch fluorescence ratio was 1.07.
TACTATGGGT showed a switch fluorescence ratio of 1.04.
GCTCGCCAGT was tested, and the switch fluorescence ratio was 0.975.
Sequence AGCTGTGGTC has a switch fluorescence ratio of 1.04.
In the case of CAAAAGCCTC, the switch fluorescence ratio is reported as 0.971.
In the case of AGTGATAACA, the switch fluorescence ratio is reported as 0.995.
GGCTGTATCC showed a switch fluorescence ratio of 1.
For GTTTGTGACC, the switch fluorescence ratio was 0.985.
CGAATTATAC was tested, and the switch fluorescence ratio was 1.58.
TCACAGCTCG gave a switch fluorescence ratio of 0.987.
Work on TGCGCGGTGG yielded a switch fluorescence ratio of 1.02.
CAATTTTCAA was tested, and the switch fluorescence ratio was 0.978.
GCGAGGCGAG gave a switch fluorescence ratio of 0.997.
Sequence GGAGCTTCCA has a switch fluorescence ratio of 1.02.
CATAAGAACG showed a switch fluorescence ratio of 1.04.
With AGCAAATGGA the switch fluorescence ratio was 1.06.
In the case of GATGTTACTC, the switch fluorescence ratio is reported as 1.12.
AGATGATGCT was tested, and the switch fluorescence ratio was 1.
GATAAAGAGA gave a switch fluorescence ratio of 0.976.
TAGAACTGCT gave a switch fluorescence ratio of 1.03.
Sequence TTTGCATAGT has a switch fluorescence ratio of 1.01.
Sequence AATTGGAGG has a switch fluorescence ratio of 0.973.
For CTAGAAATGG, the switch fluorescence ratio was 1.01.
Work on GCCATGAAAC yielded a switch fluorescence ratio of 1.03.
Sequence CTCGACACTT has a switch fluorescence ratio of 1.03.
GGCTGAATCG showed a switch fluorescence ratio of 0.968.
For TTACGCTTCG, the switch fluorescence ratio was 1.03.
CGGCGCTGTT was tested, and the switch fluorescence ratio was 1.19.
With GACAGTACTC the switch fluorescence ratio was 1.56.
ACATGGACTC was tested, and the switch fluorescence ratio was 1.11.
With CGGCAAAGAA the switch fluorescence ratio was 1.05.
For GACTGTAGTG, the switch fluorescence ratio was 0.993.
Work on TGCCGTGCGT yielded a switch fluorescence ratio of 1.02.
For TACGCGCCAT, the switch fluorescence ratio was 1.01.
Work on CGAGACGAGT yielded a switch fluorescence ratio of 0.926.
Work on GGTGTTCAAC yielded a switch fluorescence ratio of 0.975.
Sequence TTCGTGTCTC has a switch fluorescence ratio of 0.956.
For TAATGCGATC, the switch fluorescence ratio was 1.11.
For CTTTGACGAC, the switch fluorescence ratio was 1.13.
Sequence ATCGAGGCGC has a switch fluorescence ratio of 1.
CGTGCTCAAC was tested, and the switch fluorescence ratio was 1.03.
With TTCTGTTTGC the switch fluorescence ratio was 0.975.
ATGCATAGGT showed a switch fluorescence ratio of 1.02.
Work on GAGCTTACG yielded a switch fluorescence ratio of 1.03.
CTTTTCCAGT showed a switch fluorescence ratio of 1.03.
For TACATACTTA, the switch fluorescence ratio was 1.31.
Work on GCCATACAAT yielded a switch fluorescence ratio of 0.993.
CCTACTCATG gave a switch fluorescence ratio of 1.54.
TAATGGACCA was tested, and the switch fluorescence ratio was 1.03.
GCTGCCGTGG showed a switch fluorescence ratio of 0.991.
TCCATGGCGG showed a switch fluorescence ratio of 1.08.
In the case of TAAGATCGGT, the switch fluorescence ratio is reported as 1.02.
CGTTCGAATA gave a switch fluorescence ratio of 1.05.
For TCGTACCAGG, the switch fluorescence ratio was 1.61.
Work on AGGTTAGAGT yielded a switch fluorescence ratio of 1.03.
TAGGTTTAGA gave a switch fluorescence ratio of 1.02.
Sequence GATCCCAGAA has a switch fluorescence ratio of 0.996.
Work on TACACGATGG yielded a switch fluorescence ratio of 1.09.
AGAAGCTGTG gave a switch fluorescence ratio of 1.01.
GCATTGATAG was tested, and the switch fluorescence ratio was 0.98.
With TAGGTCACCG the switch fluorescence ratio was 0.986.
Work on TAACACATC yielded a switch fluorescence ratio of 1.03.
ACGTATATCT gave a switch fluorescence ratio of 1.16.
For ACTATTTATG, the switch fluorescence ratio was 1.02.
Sequence TGGATAAGCA has a switch fluorescence ratio of 0.993.
AGATAATCTG was tested, and the switch fluorescence ratio was 1.03.
ACCACTGCTT was tested, and the switch fluorescence ratio was 1.21.
In the case of TGGGTGTGTG, the switch fluorescence ratio is reported as 0.996.
With ATGAAATACA the switch fluorescence ratio was 1.26.
TTGCGACTGG showed a switch fluorescence ratio of 0.976.
CACAAGTCAC was tested, and the switch fluorescence ratio was 1.18.
In the case of CAATAAAGGG, the switch fluorescence ratio is reported as 1.04.
TTTTGACCCA gave a switch fluorescence ratio of 1.02.
TATTACTACA gave a switch fluorescence ratio of 1.06.
GGTGCGGGG was tested, and the switch fluorescence ratio was 0.984.
With TGCGCTTCTG the switch fluorescence ratio was 1.04.
CCATTAAGAC gave a switch fluorescence ratio of 1.17.
Sequence TCAATCTCTG has a switch fluorescence ratio of 1.05.
GATTAACATT was tested, and the switch fluorescence ratio was 1.05.
In the case of ATTGAGTATT, the switch fluorescence ratio is reported as 0.99.
ACCATGGGCG was tested, and the switch fluorescence ratio was 1.
GTAGCGAGTC showed a switch fluorescence ratio of 1.23.
With GCAGGGAGGC the switch fluorescence ratio was 1.09.
In the case of CATGTTGTAA, the switch fluorescence ratio is reported as 1.03.
For AGAATGGCGG, the switch fluorescence ratio was 0.977.
For TGCGATGAGA, the switch fluorescence ratio was 1.04.
For TAGAACCGAG, the switch fluorescence ratio was 1.3.
Sequence AGATGGAAGC has a switch fluorescence ratio of 0.971.
Sequence CTACAAGCGT has a switch fluorescence ratio of 0.963.
TTAGGCGATT gave a switch fluorescence ratio of 1.06.
In the case of AGCACTCTGA, the switch fluorescence ratio is reported as 1.05.
AGCATCTGCT was tested, and the switch fluorescence ratio was 1.
CGAGCGACCG was tested, and the switch fluorescence ratio was 1.01.
Work on GGGGTGCATA yielded a switch fluorescence ratio of 0.985.
Sequence CGCGAGACCC has a switch fluorescence ratio of 2.94.
ATTGGGGTCC gave a switch fluorescence ratio of 0.975.
Sequence GTCGTTTGTC has a switch fluorescence ratio of 0.984.
In the case of CCCGGGCTTT, the switch fluorescence ratio is reported as 1.02.
ACGTATCACG was tested, and the switch fluorescence ratio was 0.997.
ATCCATGGCA showed a switch fluorescence ratio of 0.979.
AAGTTAACCT was tested, and the switch fluorescence ratio was 1.38.
TTCAGTGCGG showed a switch fluorescence ratio of 1.01.
With TGCGGAAGAG the switch fluorescence ratio was 1.05.
With AAAATGTATA the switch fluorescence ratio was 1.2.
In the case of AGGTTGAG, the switch fluorescence ratio is reported as 0.978.
TCTCTGGTGT showed a switch fluorescence ratio of 1.17.
Work on GTACCTGGGT yielded a switch fluorescence ratio of 1.02.
CCGACGTGAG showed a switch fluorescence ratio of 1.54.
GGCTGTATAT showed a switch fluorescence ratio of 1.01.
TGTCCACGGT showed a switch fluorescence ratio of 1.04.
Work on AGAAGAGCAA yielded a switch fluorescence ratio of 1.68.
CGTCATTTCC gave a switch fluorescence ratio of 1.12.
In the case of TTCGGTCGTC, the switch fluorescence ratio is reported as 1.06.
In the case of CGGATTATTC, the switch fluorescence ratio is reported as 1.02.
Sequence GTTTGGGATC has a switch fluorescence ratio of 1.03.
Sequence TGTCCGGCCC has a switch fluorescence ratio of 1.04.
For ATGAGTAAGT, the switch fluorescence ratio was 1.01.
Sequence GGAAACCCTC has a switch fluorescence ratio of 1.06.
Sequence TATAAGTTTC has a switch fluorescence ratio of 0.963.
GAATGAGGAT gave a switch fluorescence ratio of 1.01.
AATACGGGTC gave a switch fluorescence ratio of 1.1.
With CTCCTCGGGA the switch fluorescence ratio was 1.05.
In the case of GCCCCCGAAT, the switch fluorescence ratio is reported as 1.09.
AATATATAAA was tested, and the switch fluorescence ratio was 1.
GTTCGATTCC gave a switch fluorescence ratio of 1.02.
For AAGGCCCAAA, the switch fluorescence ratio was 0.979.
In the case of TATATAACCT, the switch fluorescence ratio is reported as 1.08.
CCGAACATAG was tested, and the switch fluorescence ratio was 2.64.
In the case of TCGTTTTTAG, the switch fluorescence ratio is reported as 1.04.
With GCGATTTTGT the switch fluorescence ratio was 1.01.
TGGCGTATG gave a switch fluorescence ratio of 0.992.
In the case of TTTACAAGAG, the switch fluorescence ratio is reported as 0.976.
GCGGGCTTGT showed a switch fluorescence ratio of 1.01.
GGCAGCATTG gave a switch fluorescence ratio of 1.02.
GGCAAATAGT was tested, and the switch fluorescence ratio was 0.995.
Sequence ATATCCGTGT has a switch fluorescence ratio of 0.988.
With TAAACGTGTT the switch fluorescence ratio was 1.05.
For TGTGGACCAT, the switch fluorescence ratio was 1.03.
In the case of CAGCACCATA, the switch fluorescence ratio is reported as 1.13.
CAGTTTAGGT gave a switch fluorescence ratio of 0.979.
In the case of TGAAATAGGC, the switch fluorescence ratio is reported as 1.49.
For AATTTTACAA, the switch fluorescence ratio was 1.05.
For TGTGCAAACA, the switch fluorescence ratio was 1.
With GTAATTACAT the switch fluorescence ratio was 1.01.
TGCCAATGGC gave a switch fluorescence ratio of 0.996.
CATGGGAGTA gave a switch fluorescence ratio of 0.996.
Work on TGAATTTCTC yielded a switch fluorescence ratio of 1.06.
Sequence AGCATTGAAA has a switch fluorescence ratio of 1.
Work on TTAGCGGGCT yielded a switch fluorescence ratio of 1.07.
With CAATGGCGCG the switch fluorescence ratio was 1.05.
For AGCCTTATCA, the switch fluorescence ratio was 1.03.
ACAATGATAA was tested, and the switch fluorescence ratio was 1.
In the case of GGAAAATTCA, the switch fluorescence ratio is reported as 0.967.
TAGCCAGGCG showed a switch fluorescence ratio of 1.62.
Sequence CGCACAAATC has a switch fluorescence ratio of 1.44.
In the case of TATTGCGGCT, the switch fluorescence ratio is reported as 1.04.
GATGTTATG showed a switch fluorescence ratio of 0.97.
For AGAATTTAT, the switch fluorescence ratio was 0.967.
For TCTTGAAATC, the switch fluorescence ratio was 1.01.
For TGCAAGTCTG, the switch fluorescence ratio was 0.996.
For TACCGTGAGG, the switch fluorescence ratio was 1.02.
For AGGTGTGCCT, the switch fluorescence ratio was 1.02.
Work on TTCATAAAAT yielded a switch fluorescence ratio of 1.07.
AAGTACCGA gave a switch fluorescence ratio of 1.29.
CGGATTACAT showed a switch fluorescence ratio of 1.01.
TCATCAATTA showed a switch fluorescence ratio of 0.982.
For ATGGTTATAA, the switch fluorescence ratio was 0.971.
Sequence TCTATGCATA has a switch fluorescence ratio of 1.18.
In the case of TTCTTCTTCG, the switch fluorescence ratio is reported as 1.1.
AAGCGTCCTT was tested, and the switch fluorescence ratio was 1.02.
In the case of CCACTATTTA, the switch fluorescence ratio is reported as 1.03.
Work on TAGTCGGGAA yielded a switch fluorescence ratio of 0.963.
For CGGGGAACCG, the switch fluorescence ratio was 0.984.
TGGGGTCCAA gave a switch fluorescence ratio of 0.979.
For GGAGGTTTCG, the switch fluorescence ratio was 1.02.
GCTTTTCCAT gave a switch fluorescence ratio of 0.958.
With TTTGAGTTAT the switch fluorescence ratio was 1.01.
